According to the supplement of paper PMC10126150:
Sequences with one replicate were seen in a single cluster, so their values are uncertain.

Test system: ATP
Assay: switch fluorescence ratio, 500 uM ATP over buffer (Cy3 cluster intensity, sum of 5 cycles each) (fold (ratio)); higher = stronger signal-on switching upon ATP binding; sequences stand for … in TCGTCGGCAGCGTCAGATGTGTATAAGAGACAGTTTTTTTTTTTTTTTTTTTTTTTTT…TC
Details: aptamer strand: ATP DNA aptamer (quencher-CACCTGGGGGAGTATTGCGGAGGAAGG + anchor), 100 nM annealed; ATP concentration: 500 uM; one replicate
Procedure, shortened: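 Five buffer/ATP imaging cycles were run on Cy3-labelled switching-strand clusters on a modified Illumina MiSeq flow-cell, with NaOH stripping and re-annealing between cycles. In each cycle, clusters annealed to 100 nM quencher-labelled ATP aptamer were imaged in selection buffer, then after 15 min with 500 uM ATP at 22 °C. Per cluster, the fluorescence ratio is summed target-cycle over summed buffer-cycle Cy3 intensity, averaged per switch-domain sequence. Only clusters within 100-1000 RFU were kept.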
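Note: ATP exposure 15 min at 22 °C before imaging.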

| Sequence | switch fluorescence ratio |
| --- | --- |
| AATAATAGG | 1.01 |
| AATAATCGAT | 0.972 |
| AATAATTGA | 1.03 |
| AATACAAGGA | 1 |
| AATACTGGCG | 1.09 |
| AATAGCCGTT | 1.02 |
| AATAGCGGGA | 0.999 |
| AATAGGACAT | 1.04 |
| AATAGGCAGT | 1.01 |
| AATAGGGCCC | 1.07 |
| AATAGGGCT | 0.961 |
| AATAGGGGAT | 0.967 |
| AATAGTCTCG | 1.01 |
| AATAGTTACG | 0.985 |
| AATAGTTGG | 0.997 |
| AATAGTTTTC | 0.957 |
| AATATAAGG | 1 |
| AATATGCGCT | 0.944 |
| AATATGGTGA | 0.997 |
| AATATTAGGG | 0.987 |
| AATATTCAGA | 1.34 |
| AATCAACGTC | 1.01 |
| AATCACCACT | 1.02 |
| AATCACGTGG | 0.973 |
| AATCACTAAG | 1.06 |
| AATCAGGTCT | 1.02 |

| Sequence | switch fluorescence ratio |
| --- | --- |
| AATCAGTAAG | 0.999 |
| AATCATGCT | 0.973 |
| AATCCA | 1 |
| AATCCAACAA | 1.02 |
| AATCCAGTG | 1.11 |
| AATCCCTACA | 1.04 |
| AATCCGTTGA | 1 |
| AATCGCCGTT | 0.997 |
| AATCGGGGTG | 1.01 |
| AATCGGTCTA | 0.981 |
| AATCGTAGCC | 1.01 |
| AATCTCCGTG | 1.09 |
| AATCTCTTGT | 0.99 |
| AATCTGTTGC | 0.977 |
| AATCTTCCGT | 1.55 |
| AATCTTCGGA | 0.993 |
| AATCTTGCTT | 1.04 |
| AATCTTGTTT | 1 |
| AATGAAGACA | 1.03 |
| AATGAAGTCT | 1.42 |
| AATGACTAAA | 1.2 |
| AATGACTCGC | 1.1 |
| AATGAGCGAG | 1.05 |
| AATGAGCTTG | 1.03 |
| AATGAGGACC | 0.98 |
| AATGAGGCAA | 1.41 |

| Sequence | switch fluorescence ratio |
| --- | --- |
| AATGATCGGT | 1 |
| AATGATTGGT | 0.978 |
| AATGCACGCG | 0.967 |
| AATGCAGTG | 1.03 |
| AATGCATGGA | 1.01 |
| AATGCTAGTA | 1.01 |
| AATGCTCACT | 0.984 |
| AATGCTGTAC | 1.48 |
| AATGGCAAGG | 0.954 |
| AATGGCGCTA | 0.968 |
| AATGGGCCCG | 0.977 |
| AATGGGGA | 0.974 |
| AATGGGGCTC | 1.02 |
| AATGGTAGC | 1.02 |
| AATGGTCTAA | 0.991 |
| AATGTAAGGC | 0.96 |
| AATGTAGTAT | 0.974 |
| AATGTCACAC | 1.02 |
| AATGTCTTAG | 1.01 |
| AATGTGGGTT | 1 |
| AATGTGTACC | 1.02 |
| AATGTTGCAC | 1.07 |
| AATGTTTTT | 0.997 |
| AATTAAATAT | 0.977 |
| AATTAAGCAA | 1.79 |
| AATTAATCTT | 0.943 |

| Sequence | switch fluorescence ratio |
| --- | --- |
| AATTAGAAT | 0.992 |
| AATTAGATT | 1.01 |
| AATTAGGCAT | 1.03 |
| AATTAGGCCG | 0.999 |
| AATTAGGGT | 0.963 |
| AATTAGGGTC | 1.01 |
| AATTAGGTAG | 0.982 |
| AATTAGTCTG | 0.983 |
| AATTATATTG | 0.998 |
| AATTATCCCT | 1.05 |
| AATTATTACG | 1.05 |
| AATTCACTGT | 0.988 |
| AATTCCAGTG | 1.13 |
| AATTCCCTAG | 1.04 |
| AATTCCCTTG | 0.96 |
| AATTCCGTGT | 1.01 |
| AATTCGTCTA | 0.986 |
| AATTCTAAAT | 0.95 |
| AATTCTAGT | 0.999 |
| AATTCTGCCC | 1.03 |
| AATTCTTATA | 1.03 |
| AATTGAGGGT | 1.06 |
| AATTGATAAC | 0.987 |
| AATTGCGAGT | 0.978 |
| AATTGCTTTT | 1 |
| AATTGGATAG | 1.03 |

| Sequence | switch fluorescence ratio |
| --- | --- |
| AATTGGCTTT | 0.995 |
| AATTGTCGG | 1.03 |
| AATTTAAG | 0.995 |
| AATTTAATGA | 1.01 |
| AATTTACTAC | 1.05 |
| AATTTATAT | 1.03 |
| AATTTCGAC | 1.06 |
| AATTTCGCCC | 0.962 |
| AATTTCGCTA | 1.03 |
| AATTTCGGCA | 1.04 |
| AATTTGCC | 1.01 |
| AATTTGCTAG | 1.04 |
| AATTTGGATT | 0.994 |
| AATTTGTCGT | 1.04 |
| AATTTGTGGT | 0.987 |
| AATTTTAAA | 0.979 |
| AATTTTCACT | 1.01 |
| AATTTTCTTG | 0.926 |
| ACAAAACAGA | 0.992 |
| ACAAAACCGA | 1.28 |
| ACAAAACGTG | 1.05 |
| ACAAAAGTG | 0.97 |
| ACAAACTGGC | 1.11 |
| ACAAAGACAA | 1.01 |
| ACAACAAATT | 0.994 |
| ACAACTTTGG | 1.02 |

| Sequence | switch fluorescence ratio |
| --- | --- |
| ACAAGAACGC | 1.09 |
| ACAAGACAGC | 1.08 |
| ACAAGAGTCA | 0.999 |
| ACAAGATTGT | 1.03 |
| ACAAGCTATC | 1.47 |
| ACAAGGGGTG | 1.06 |
| ACAAGGTCCC | 1.01 |
| ACAAGTATTT | 1 |
| ACAAGTTTAT | 0.987 |
| ACAATCACGC | 1.25 |
| ACAATCGAT | 0.948 |
| ACAATGCCCA | 1.03 |
| ACAATTATCT | 1.04 |
| ACAATTGTGG | 0.986 |
| ACAATTGTTG | 1.01 |
| ACAATTTAAG | 1.07 |
| ACACAGCTGT | 0.997 |
| ACACAGGTGG | 1.23 |
| ACACATCCAG | 1.06 |
| ACACCCTATA | 1.22 |
| ACACCCTGGA | 1.24 |
| ACACCGCTCA | 1.76 |
| ACACCGGATT | 0.989 |
| ACACCTGACC | 2.01 |
| ACACCTTAAT | 1.14 |
| ACACGTCCAT | 1.08 |

| Sequence | switch fluorescence ratio |
| --- | --- |
| ACACTAGAGG | 1.06 |
| ACACTGGCTC | 1.04 |
| ACACTGGTTT | 0.969 |
| ACACTTAGC | 1.06 |
| ACACTTATAG | 1.05 |
| ACAGAAATAC | 4.48 |
| ACAGAAATTG | 1.05 |
| ACAGAACGCT | 1.08 |
| ACAGAAGAG | 1.02 |
| ACAGACATCA | 1.06 |
| ACAGAGGTAG | 1.01 |
| ACAGATCCAT | 0.989 |
| ACAGCCAGGA | 1.01 |
| ACAGCCTTAA | 0.981 |
| ACAGCGAGAG | 1.06 |
| ACAGCTGAGA | 1.09 |
| ACAGCTTCGG | 1 |
| ACAGCTTTA | 0.972 |
| ACAGGACACA | 1.11 |
| ACAGGAGAAT | 1.04 |
| ACAGGATGGG | 1.05 |
| ACAGGCAAGT | 0.969 |
| ACAGGCAGCG | 1.05 |
| ACAGGCATAA | 1.06 |
| ACAGGCGCGT | 1.07 |
| ACAGGGAGGT | 0.984 |

| Sequence | switch fluorescence ratio |
| --- | --- |
| ACAGGGATTC | 0.986 |
| ACAGGGCAG | 1.06 |
| ACAGGGGGT | 1.08 |
| ACAGGTCCAT | 0.957 |
| ACAGGTTATT | 0.995 |
| ACAGTACAG | 1.43 |
| ACAGTAGTGA | 0.996 |
| ACAGTCAAGT | 1.04 |
| ACAGTCAT | 0.989 |
| ACAGTGATTA | 1.02 |
| ACAGTGCTGT | 1.07 |
| ACAGTGTTCG | 0.988 |
| ACAGTTTCGA | 1.01 |
| ACATAAAGAG | 1.02 |
| ACATAAAGGA | 1.03 |
| ACATACTCTA | 1.4 |
| ACATAGCTCG | 1.01 |
| ACATAGTATG | 1 |
| ACATATAGAC | 1.01 |
